Source: PubChem BioAssay AID463173 (ICCB-Longwood Screening Facility, Harvard Medical School, 2010)
Hit rate of the full screen: of about 52,000 compounds, about 1,700 (3.3%) were called active. No stated cut-off is given here; in the data, active means survival mostly below about 52% (no sharp cut-off); inactive means mostly above about 56%. This is one part of the list.

The compounds below were run on Wild type (assay: S. aureus survival, RN4220 and DeltatarO strains – OD600, teichoic acid synthesis inhibitors, primary screen (AID 463173)). Settings: S. aureus RN4220 wild type/DeltatarO growth, OD600, 18 h, stronger effect = lower value, screened at 18.75 µg/mL (by protocol).
With `Cc1ccccc1OCc1ccc(-c2nc(C#N)c(N3CCN(c4cccc(Cl)c4)CC3)o2)o1` the survival was inactive: 96%. With `Cc1cc(C)c(NC(=O)C2CCCN(S(=O)(=O)c3c(C)noc3C)C2)c(C)c1` (stereo not drawn) the survival was inactive: 73%. In the case of `Cc1cc(C)c(S(=O)(=O)Nc2nnc(C(F)(F)F)s2)c(C)c1`, the survival is reported as inactive: 86%. With `CCCCCCOc1ccc(C2C(=O)N(C3CCCCC3)CC(=O)N2C2CCCCC2)cc1` (stereo not drawn) the survival was inactive: 69%. For `O=c1[nH]c2cc3c(cc2cc1CN(Cc1ccc2c(c1)OCO2)S(=O)(=O)c1ccc(F)cc1)OCO3`, the survival was inactive: 102%. In the case of `CCC(=O)N1CCc2cc(S(=O)(=O)NCCC(=O)Nc3ccc(N(CC)CC)cc3C)ccc21`, the survival is reported as inactive: 76%. With `CCN(CC)S(=O)(=O)c1ccc(C(=O)NCCSc2c(-c3ccccc3)[nH]c3ccccc23)cc1` the survival was inactive: 100%. `Cc1ccc2cccc(NC(=S)NC(=O)c3ccn(C)n3)c2n1` was tested, and the survival was inactive: 104%. For `O=C(c1ccc2c(c1)N(Cc1ccc(F)cc1)C(=O)c1ccccc1S2(=O)=O)N1CCCCC1`, the survival was inactive: 122%. With `COc1cc(NC(=O)CSc2c3c(nc4ccccc24)CCC3)cc(OC)c1OC` the survival was inactive: 74%. For `NC(=O)c1cc(S(=O)(=O)N2CCN(c3cccc(C(F)(F)F)c3)CC2)cs1`, the survival was inactive: 91%. With `O=C(CSc1nc(-c2cccc(F)c2)[nH]c1-c1ccccc1)Nc1ccc2c(c1)OCO2` the survival was inactive: 43%. With `O=C(CSc1nc2ccccc2nc1Cc1ccc(Cl)cc1)N1CCN(c2ccccc2)CC1` the survival was inactive: 77%. `CC1CCCCN1S(=O)(=O)c1ccc(S(=O)(=O)NCc2ccc3c(c2)OCO3)cc1` (stereo not drawn) was tested, and the survival was inactive: 108%. For `CCOC(=O)C1(Cc2ccc(O)cc2)NC(c2ccccc2F)C2C(=O)N(C)C(=O)C21` (stereo not drawn), the survival was inactive: 114%. `COc1cc(NC(=O)c2cc3cc4ccc(C)cc4nc3o2)cc(OC)c1OC` was tested, and the survival was inactive: 87%. `CCc1ccccc1N(C)C(=O)C1CCCN(c2ncnc3c2nc2n3CCCCC2)C1` (stereo not drawn) was tested, and the survival was inactive: 75%. For `Cc1ccc(-n2ncc(C(=O)NCc3ccco3)c2C2CCN(C(=O)OC(C)(C)C)CC2)cc1C`, the survival was inactive: 72%. For `Cc1c(C(=O)Nc2cc(F)ccc2F)sc2nc(-c3ccc(F)cc3)cn12`, the survival was inactive: 136%. For `CCc1c(C)c2cc3c(c(C)c2oc1=O)OCN(CCc1ccccc1F)C3`, the survival was inactive: 110%. `CCCCN(C(=O)C1CCC(CNS(=O)(=O)c2cccc3nsnc23)CC1)c1ccccc1` (stereo not drawn) was tested, and the survival was inactive: 72%. `CCOC(=O)c1c(NC(=O)c2ccc(OCC)c(Br)c2)sc2c1CCCC2` was tested, and the survival was inactive: 67%. For `Cc1cc2oc(=O)c(CC(=O)NCCc3ccccc3F)c(C)c2c2occ(C(C)(C)C)c12`, the survival was inactive: 103%.
